Where a name gives a salt, the structure may show the parent alone. This is one part of the list. Single values are uncertain, as repeats are few or missing.
Test system: Beas-2B AQP5-HiBiT reporter cells
Assay: AQP5-HiBiT luminescence relative to vehicle (ratio to vehicle); higher = higher AQP5-HiBiT protein abundance
Settings: 10 µM; 18 h
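Further: monoclonal Beas-2B line stably carrying CMV promoter-driven AQP5-HiBiT, 5,000 cells per well in 384-well plates, lytic HiBiT plus LgBiT NanoLuc luminescence, FDA-approved drug library screen.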

Row | Structure (SMILES) | AQP5-HiBiT luminescence
1 | CCOC(=O)C1=C(COCCN)NC(C)=C(C(=O)OC)C1c1ccccc1Cl (stereo not given) [Amlodipine] | 2.05
2 | NCc1ccc(S(N)(=O)=O)cc1 [Mafenide hydrochloride] | 0.876
3 | C[C@H]1c2cccc(O)c2C(=O)C2=C(O)[C@]3(O)C(=O)C(C(N)=O)=C(O)[C@@H](N(C)C)[C@@H]3[C@@H](O)[C@@H]21 [Doxycycline] | 0.551
4 | Cc1cn([C@H]2C[C@H](N=[N+]=[N-])[C@@H](CO)O2)c(=O)[nH]c1=O [Zidovudine] | 0.956
5 | CC(C)(O/N=C(\C(=O)N[C@@H]1C(=O)N2C(C(=O)[O-])=C(C[n+]3ccccc3)CS[C@H]12)c1csc(N)n1)C(=O)O [Ceftazidime] | 0.706
6 | CCOC(=O)CCC(=O)O[C@H]1[C@H](O[C@@H]2[C@@H](C)[C@H](O[C@H]3C[C@@](C)(OC)[C@@H](O)[C@H](C)O3)[C@@H](C)C(=O)O[C@H](CC)[C@@](C)(O)[C@H](O)[C@@H](C)C(=O)[C@H](C)C[C@@]2(C)O)O[C@H](C)C[C@@H]1N(C)C [Erythromycin ethylsuccinate] | 0.889
7 | CCCCOc1ccc(OCCCN2CCOCC2)cc1 [Pramoxine hydrochloride] | 0.791
8 | CC1(C)O[C@@H]2C[C@H]3[C@@H]4CCC5=CC(=O)CC[C@]5(C)[C@@]4(F)[C@@H](O)C[C@]3(C)[C@]2(C(=O)CCl)O1 [Halcinonide] | 0.817
9 | CC(C(=O)O)c1ccc2c(c1)[nH]c1ccc(Cl)cc12 (stereo not given) [Carprofen] | 1.03
10 | CN(C)CCN(Cc1ccccc1)c1ccccn1 [Tripelennamine hydrochloride] | 1.12

Reference: the supplement of paper PMC8821664
